Each structure is given as a SMILES string. “And” between values parts separate entries of the source, which are not always exact repeats. Equal entries are not always repeated. Screen size: about 110,000 compounds; about 230 (0.21%) showed an effect of 50% or more. Some of the results follow.

Here are results for 98 compounds from publication PMC6919601, “Identification of Plasmodium dipeptidyl aminopeptidase allosteric inhibitors by high throughput screening” (PLoS ONE, 2019).
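Also: 30 min substrate incubation versus DMSO and 10 µM JCP410 controls.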

The assay deals with DPAP1 (Plasmodium falciparum, UniProt Q8IIJ9). Description: primary screen, percent inhibition; read by cleavage of a fluorogenic dipeptide substrate; higher = more effect of the substance. Details: species or system P. falciparum D10 trophozoite lysates; single well.
Sequence of DPAP1 (Q8IIJ9 whole entry, looked up): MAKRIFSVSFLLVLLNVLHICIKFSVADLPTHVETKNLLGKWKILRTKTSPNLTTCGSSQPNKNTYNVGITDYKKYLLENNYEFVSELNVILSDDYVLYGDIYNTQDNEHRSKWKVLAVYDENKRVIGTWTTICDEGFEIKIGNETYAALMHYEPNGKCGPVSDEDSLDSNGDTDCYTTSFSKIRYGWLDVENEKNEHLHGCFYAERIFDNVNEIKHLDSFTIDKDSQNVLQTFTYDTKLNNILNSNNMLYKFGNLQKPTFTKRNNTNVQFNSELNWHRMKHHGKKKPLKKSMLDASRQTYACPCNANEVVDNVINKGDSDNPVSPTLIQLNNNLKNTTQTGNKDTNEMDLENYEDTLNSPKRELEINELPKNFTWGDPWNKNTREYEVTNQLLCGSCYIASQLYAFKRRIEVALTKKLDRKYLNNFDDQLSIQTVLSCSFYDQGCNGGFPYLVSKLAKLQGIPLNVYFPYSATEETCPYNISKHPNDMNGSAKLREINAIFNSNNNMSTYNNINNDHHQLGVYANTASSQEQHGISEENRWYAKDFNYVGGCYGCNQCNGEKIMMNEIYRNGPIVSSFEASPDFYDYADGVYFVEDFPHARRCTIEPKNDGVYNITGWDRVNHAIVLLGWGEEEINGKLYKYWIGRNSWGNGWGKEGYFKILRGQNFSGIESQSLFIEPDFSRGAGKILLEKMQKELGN
Regarding `CC(C)(C)Nc1ncnc2c1cnn2-c1ccc(Cl)cc1`, the “% Inhibition @ 10 uM” value is listed as -2.67%. The result for `COc1ccccc1NC(=O)CN1C(=O)c2cccc3cccc(c23)C1=O` reads 2.51%; that for `COc1ccc(C(=O)/C=C\c2ccc(Cl)cc2Cl)cc1F`, 4.6%; that for `O=C(NC1CCCc2ccccc21)C(Cc1ccccc1)NS(=O)(=O)c1cccs1` (centres unmarked), 4.02%. With `CN1C(=O)N(c2ccccc2)C(NC(=O)Nc2ccc(Cl)c(Cl)c2)C1(C)C` (centres unmarked), the “% Inhibition @ 10 uM” value worked out at 3.7%.

Turning to `O=C1C(/C=N/CCN2CCOCC2)=C(O)c2ccccc21`, the “% Inhibition @ 10 uM” value worked out at 10.6%.

With `N#CC1=C(N)N(c2c(F)cccc2F)C2=C(C(=O)CCC2)C1c1ccsc1` (centres unmarked), the “% Inhibition @ 10 uM” value is listed as -9.33%. The figure for `CC(C)(C)C1CCc2c(sc(NC(=O)c3cccs3)c2C(=O)NCCO)C1` (centres unmarked) is 5.23%; for `CCc1nnc(NC(=O)c2c(OC)cccc2OC)s1` it is -3.98%.

`COc1cccc(-c2nc(-c3cc4ccccc4nc3OC)no2)c1`: the “% Inhibition @ 10 uM” value is -4.19%. The result for `CC(C)C(NC(=O)c1ccc(Cl)cc1)C(=O)Nc1nc2ccccc2s1` (centres unmarked) reads 2.17%; that for `Cc1ccc(/C=C(\NC(=O)c2ccccc2)C(=O)NCCc2cccc(Cl)c2)o1`, 2.17%; that for `CCOC(=O)c1c(CSc2ccc(C)cc2)n(C)c2ccc(O)cc12`, -7.23%. Turning to `CSc1nsc(SCC(=O)NCc2ccco2)n1`, the “% Inhibition @ 10 uM” value is on record as -1.52%. For the compound `c1ccc2nc(-c3ccc(Cc4ccc(-c5cnc6ccccc6n5)cc4)cc3)cnc2c1`, the “% Inhibition @ 10 uM” value is listed as 0.989%. The figure for `CC(C)C[C@H](NC(=O)OCc1ccccc1)C(=O)N[C@H](C#N)Cc1c[nH]cn1` is 3.19%. On to `Brc1ccc(Cn2c3ccccc3c3nc4ccccc4nc32)cc1`, for which the “% Inhibition @ 10 uM” value was -2.51%.

Turning to `CC1(C)CC(=O)C2=C(C1)OC(N)=C(C#N)C2c1ccc(-c2ccc(F)cc2)o1` (centres unmarked), the “% Inhibition @ 10 uM” value was -1.38%. In the case of `Cc1cc(C)c(C(=O)Cc2ccccc2)c(O)n1`, the “% Inhibition @ 10 uM” value was -6.12%.

As to `CS/C(=C\C(=O)c1ccco1)CC(=O)c1ccco1`, the “% Inhibition @ 10 uM” value is -1.17%.

Turning to `CC(C)(C)n1ncc2c(=O)n(CC(=O)NC3CCCC3)cnc21`, the “% Inhibition @ 10 uM” value was 3.24%. For `CCOc1ccc(/C=C2/S/C(=N/c3ccccc3)N(C)C2=O)cc1OC`, the “% Inhibition @ 10 uM” value was -10.6%.

With `COc1cc(C2C(C(C)=O)=C(C)Nc3ncnn32)ccc1OCc1ccccc1C` (centres unmarked), the “% Inhibition @ 10 uM” value is -2.98%. The figure for `Cc1cc(/C=C2/NC(=O)N(c3ccc(Cl)cc3)C2=O)c(C)n1-c1ccc(S(N)(=O)=O)cc1` is 5.73%; for `N#CCNC(=O)[C@H](CSCc1ccccc1)NC(=O)/C=C/c1cccnc1` it is 1.35%. Regarding `OC12CC3CC(C1)C(Nc1ccc(Br)cc1)C(C3)C2` (centres unmarked), the “% Inhibition @ 10 uM” value was -1.82%. The figure for `CC1(C)CC(=O)C(/C=N/c2ccncc2)=C(O)C1` is -1.06% and -1.26%. Regarding `Cc1ccccc1Cn1c(C(=O)O)c(CNCCc2cccs2)c2ccccc21`, the “% Inhibition @ 10 uM” value is given as 1.93%. The figure for `COc1ccccc1-c1nnc(SCC#CCO)o1` is 1.74%; for `Cc1nc2cc(-c3ccccc3)nn2c(C)c1CCC(=O)NC1CCCC1` it is 2.93%; for `O=C1c2cccc3c(O)c(Cc4ccccc4)c(O)c(c23)C(=O)N1c1ccccc1` it is -1.07%. Turning to `O=C(c1ccc(CS(=O)Cc2ccccc2Cl)o1)N1CCC(N2CCCCC2)CC1` (centres unmarked), the “% Inhibition @ 10 uM” value was -3.61%.

As for `COc1ccc(S(=O)(=O)Nc2ccccc2C(=O)N2CCCC2)cc1C`, the “% Inhibition @ 10 uM” value is on record as -3.71%. The figure for `O=C(Nc1ccccc1)Nc1cccc(Cl)c1Cl` is -0.969%; for `Clc1ccc(N2CCN(Cc3ccccc3Cl)CC2)cc1` it is -5.5%.

On to `Cc1cccc(C)c1NC(=O)CN1CCCCCC1`, for which the “% Inhibition @ 10 uM” value is recorded as 0.273%. The result for `COc1ccc(Br)cc1/C=c1\sc2nc(C3COc4ccccc4O3)nn2c1=O` (centres unmarked) reads 5.12%.

For the compound `CSc1cccc(NC(=O)CNS(=O)(=O)c2ccc(F)cc2)c1`, the “% Inhibition @ 10 uM” value came out at 5.66%.

For the compound `CC(=O)N1CCc2c(sc3c2c(=O)n(Cc2ccccc2)c(=O)n3CC(N)=O)C1`, the “% Inhibition @ 10 uM” value turned out to be 3.32%. Turning to `CCOc1ccc(/C=C(/C#N)c2nc(-c3ccc(F)cc3)cs2)cc1`, the “% Inhibition @ 10 uM” value is -2.28%. The figure for `Clc1ccc(Cn2ncc3c(N4CCCCC4)ncnc32)c(Cl)c1` is -2.44%; for `CCCCN(CCCn1cnc2c3ccccc3nc-2c1O)Cc1ccccc1` it is 1.64%.

As to `Nc1c(N2CCCCC2)cnn(-c2ccccc2)c1=O`, the “% Inhibition @ 10 uM” value came to 3.48%. The result for `Cc1ccc(NC(=O)CCC(=O)O)c(C(=O)c2ccccc2)c1` reads -3.9%; that for `Cn1c(Cn2nnc(-c3ccccc3)n2)nnc1SCc1ccccc1Cl`, -4.04%. Consider `COc1cc(/C=C2\SC(Nc3cccc(Br)c3)=NC2=O)ccc1OCC(=O)O`, for which the “% Inhibition @ 10 uM” value is given as 0.245%.

As for `CCOC(=O)C1CCN(C(C)CCc2ccc(O)cc2)CC1` (centres unmarked), the “% Inhibition @ 10 uM” value is listed as -3.6%. Turning to `Cc1ccc(C)c(N(CC(=O)NC2CCCCC2)S(C)(=O)=O)c1`, the “% Inhibition @ 10 uM” value was -4.24%. The figure for `O=C(Nc1ccc(N2CCN(Cc3ccccc3)CC2)cc1)c1ccc(Br)o1` is -2.29%. Take `Cc1cc(C)c(S(=O)(=O)Nc2ccc(Br)cc2)c(C)c1`: the “% Inhibition @ 10 uM” value is on record as 1.91%.

For the compound `C=CCn1c(SCC(=O)Nc2ccsc2C(=O)OC)nnc1-c1cccnc1`, the “% Inhibition @ 10 uM” value is -2.19%. Regarding `Clc1cccc(CN2CCN(c3ccccn3)CC2)c1`, the “% Inhibition @ 10 uM” value was -3.72%. `Nc1c(C(=O)N2CCOCC2)sc2nc3c(cc12)CCCCC3`: the “% Inhibition @ 10 uM” value was 33.4%. Take `C#CC(C)(CC)NS(=O)(=O)c1cc(C(C)C)ccc1OC` (centres unmarked): the “% Inhibition @ 10 uM” value came out at 10.4%. Take `Cc1ccc(S(=O)(=O)NCc2ccc(C(=O)N3CCN(Cc4ccccc4)CC3)cc2)cc1`: the “% Inhibition @ 10 uM” value is -7.16%. As for `Cn1c(=O)c2c(nc(CN3CCCCC3)n2Cc2c(F)cccc2Cl)n(C)c1=O`, the “% Inhibition @ 10 uM” value came to 1.23%. Turning to `OC1CCN(Cc2ccc(Cl)cc2)C1` (centres unmarked), the “% Inhibition @ 10 uM” value is -5.31%. For `Cc1cc(C)n(-c2nc3ccccc3n3c(C)nnc23)n1`, the “% Inhibition @ 10 uM” value was determined as 5.62%. In the case of `O=C(NCc1cccnc1)c1ccc(CS(=O)(=O)c2c(Cl)cccc2Cl)o1`, the “% Inhibition @ 10 uM” value is -8.9%. In the case of `O=C(CN(c1cccc(C(F)(F)F)c1)S(=O)(=O)c1ccccc1)Nc1ccc2c(c1)OCO2`, the “% Inhibition @ 10 uM” value is listed as -5.29%. On to `O=S(=O)(Nc1cc(Cl)c(O)c(Cl)c1)c1ccccc1`, for which the “% Inhibition @ 10 uM” value turned out to be 1.24%.

For the compound `CCOC(=O)C1=C(CN2CCC(C(N)=O)CC2)NC(=O)NC1c1ccco1` (centres unmarked), the “% Inhibition @ 10 uM” value was -2.83%.

As to `Cc1ccc(-n2nc3c(=O)n(CCCC(=O)NCc4ccc(C)o4)nc(C)c3c2C)cc1`, the “% Inhibition @ 10 uM” value is reported as -0.846%. Take `CCC1(C)OC(=O)N(CCc2ccc(OC)c(OC)c2)C1(C)O` (centres unmarked): the “% Inhibition @ 10 uM” value is listed as -8.71%. The figure for `CCCC1=C(C(=O)OCC)C(c2ccc(C)cc2)NC(=O)N1` (centres unmarked) is 0.0538%. The figure for `O=C(COc1ccccc1)Nc1cc(Cl)c(Cl)cc1Cl` is -4.01%; for `COc1ccc(-c2cc(C(=O)N3CCCC3)c3ccccc3n2)c(OC)c1` it is 0.389%; for `NS(=O)(=O)c1ccc(NC(=O)CSc2nc(-c3ccccc3)c(-c3ccccc3)o2)cc1` it is -0.884%. The result for `CCCC(=O)Nc1ccc(S(=O)(=O)N(C)Cc2ccccc2)cc1` reads -0.251%. On to `Cc1cccc(NC(=O)c2noc3c2CCCC3)n1`, for which the “% Inhibition @ 10 uM” value is reported as -3.64%. As for `COc1c2ccoc2nc2c(OC)cccc12`, the “% Inhibition @ 10 uM” value is given as -0.969%.

Consider `O=S(=O)(NCCc1nnc2ccc(SCc3cccc(C(F)(F)F)c3)nn12)c1ccccc1`, for which the “% Inhibition @ 10 uM” value is given as -2.26%. In the case of `CCc1ccccc1-n1c(SCC(=O)N(CC)CC)nc2nnc(C)c-2c1N`, the “% Inhibition @ 10 uM” value came out at 1.2%. Regarding `Cc1ccc(S(=O)(=O)Nc2ccc(NC(=O)Nc3ccc(Cl)cc3)cc2)cc1`, the “% Inhibition @ 10 uM” value is reported as -2.46%. For `CCOC(=O)N1CCN(c2c(NCCCN(CC)CC)c(=O)c2=O)CC1`, the “% Inhibition @ 10 uM” value is reported as -5.05%. On to `CCN(CC)CCCC(C)NC(=O)c1c(NC(=O)c2ccccc2)sc(C)c1C` (centres unmarked), for which the “% Inhibition @ 10 uM” value is recorded as 1.13%. The figure for `COc1ccc(-c2cc(C(N)=O)on2)cc1` is 8.01%; for `COCCN1C(=O)/C(=C/c2ccccc2)S/C1=N\c1ccccc1` it is -4.21%. Turning to `CC(C)(C)C(=O)Nc1ccc(-c2nc3ccccc3o2)cc1`, the “% Inhibition @ 10 uM” value is given as -4.43%.

`CCOc1ccc2nc(N3CCCC(C(=O)NC(CC)Cc4ccccc4)C3)sc2c1` (centres unmarked): the “% Inhibition @ 10 uM” value is recorded as 3.4%. The result for `Cc1ccc(C)c(-c2csc(NC(=O)C3C4CCC(C4)C3C(=O)O)n2)c1` (centres unmarked) reads 8.36%. For `Cc1ccc2[nH]c3c(N4CCOCC4)ncnc3c2c1`, the “% Inhibition @ 10 uM” value is recorded as -1.85%. The result for `CC1Cc2cc(C(=O)C3=C(O)C(=O)N(CCCN4CCOCC4)C3c3ccccc3)ccc2O1` (centres unmarked) reads -1.41%; that for `CCSC1=N/C(=C\c2ccc(OC)cc2)C(=O)N1`, -0.105%. As to `CCCCNc1oc(/C=C/c2ccccc2OC)nc1C#N`, the “% Inhibition @ 10 uM” value came out at 0.685%. In the case of `O=C(O)CSc1nnc(-c2cccs2)n1-c1ccccc1`, the “% Inhibition @ 10 uM” value is reported as -7.65%. The figure for `CCCN(CCC)S(=O)(=O)c1ccc(C(=O)Nc2nc3c(s2)CCc2ccccc2-3)cc1` is 7.49%; for `CC(C)(C)c1ccc(/C=C/C(=O)N(Cc2ccccc2F)C2CCS(=O)(=O)C2)cc1` (centres unmarked) it is 5.17%. For `O=C1NN(c2ccc(Br)cc2)C(=O)/C1=C\c1ccco1`, the “% Inhibition @ 10 uM” value is given as -3.35%. On to `Cc1ccc(Cc2c(C)nc3c(C(=O)NCc4ccc5c(c4)OCO5)cnn3c2C)cc1`, for which the “% Inhibition @ 10 uM” value is listed as -0.406%. The result for `COC(=O)c1sccc1NC(=O)CSc1nnnn1-c1ccccc1F` reads 2.99%; that for `Cc1ccc(-n2nc3c(N4CCCC(C(=O)NCc5ccccn5)C4)nnc(C)c3c2C)cc1` (centres unmarked), -1.23%; that for `O=C(c1ccc(S(=O)(=O)N2CCCC2)cc1)N1CCN(C(c2ccccc2)c2ccccc2)CC1`, -0.891%. The figure for `CC(C(=O)O)c1nnc(O)c2ccccc12` (centres unmarked) is 4.15%; for `COCCNC(=O)CN1CCN(Cc2cccc(Cl)c2)C1=O` it is -1.55%; for `CCCCC(NC(=O)C(NC(=O)OCc1ccccc1)C(C)CC)C(=O)C[N+](=O)[O-]` (centres unmarked) it is 0.744%. As for `O=C(c1cc(-c2ccco2)on1)N1CCN(C(c2ccccc2)c2ccccc2)CC1`, the “% Inhibition @ 10 uM” value was 0.0221%.

With `Cc1nc(NC(=O)c2cc(Cl)ccc2Cl)ccc1Br`, the “% Inhibition @ 10 uM” value was determined as 0.755%.
